# Laboratory results taken from the supplement of paper PMC7238544.
# Where a name gives a salt, the structure may show the parent alone. ± gives the standard deviation of the averaged measurements. Some of the results follow.
# Test system: hAMSC donor 2
# Test: transfection efficiency (EGFP+ cells / Hoechst count) fold change vs vehicle control (ratio); hAMSC are human adipose-derived mesenchymal stem cells given an EGFP-luciferase plasmid by lipofection; higher = enhanced transfection
# Conditions: priming compound concentration 100 µM
# 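Further: compounds added 30 min before Lipofectamine 3000 lipoplex transfection, triplicate means relative to DMSO vehicle wells on the same plate, luciferase RLU normalized to BCA total protein.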
row,Compound,transfection efficiency
1,CN1CCN(c2nc3cc(C(F)(F)F)ccc3n3cccc23)CC1,0.7 ± 0.17
2,CN1C(C(=O)Nc2ccccn2)=C(O)c2ccccc2S1(=O)=O [Piroxicam],1.02 ± 0.31
3,CC(=O)N1CCN(c2ccc(OCC3COC(Cn4ccnc4)(c4ccc(Cl)cc4Cl)O3)cc2)CC1 (stereo not drawn) [Ketoconazole],2.1 ± 0.23
4,CN(C)C(=O)C(CCN1CCC(O)(c2ccc(Cl)cc2)CC1)(c1ccccc1)c1ccccc1 [Loperamide hydrochloride],0.155 ± 0.27
5,CN(CCO)CC(O)Cn1cnc2c1c(=O)n(C)c(=O)n2C (stereo not drawn) [Xanthinol nicotinate],0.905 ± 0.13
6,CCC1=C(C)CN(C(=O)NCCc2ccc(S(=O)(=O)NC(=O)N[C@H]3CC[C@H](C)CC3)cc2)C1=O [Glimepiride],0.853 ± 0.094
7,CN(C)c1ccc(O)c2c1C[C@H]1C[C@H]3[C@H](N(C)C)C(O)=C(C(N)=O)C(=O)[C@@]3(O)C(O)=C1C2=O [Minocycline hydrochloride],1.02 ± 0.12
8,Nc1nnc(-c2cccc(Cl)c2Cl)c(N)n1 [Lamotrigine],1.18 ± 0.15
9,COCC1=C(C(=O)OC(C)OC(=O)OC(C)C)N2C(=O)[C@@H](NC(=O)/C(=N\OC)c3csc(N)n3)[C@H]2SC1 (stereo partly drawn) [Cefpodoxime proxetil],1.04 ± 0.086
10,CCn1cc(C(=O)O)c(=O)c2ccc(C)nc21 [Nalidixic acid],1.02 ± 0.34
11,O=C(N[C@H](CO)[C@H](O)c1ccc([N+](=O)[O-])cc1)C(Cl)Cl [Chloramphenicol],1.64 ± 0.38
12,C#C[C@]1(O)CC[C@H]2[C@@H]3[C@H](C)CC4=C(CCC(=O)C4)[C@H]3CC[C@@]21C [Tibolone],0.519 ± 0.052
13,Cc1nnc(SCC2=C(C(=O)O)N3C(=O)[C@@H](NC(=O)Cn4cnnn4)[C@H]3SC2)s1 [Cefazolin sodium],1.43 ± 0.16
14,CN(C)CC/C=C1/c2ccccc2COc2ccc(CC(=O)O)cc21 [Olopatadine hydrochloride],0.875 ± 0.15
15,O=C1CN(/N=C/c2ccc([N+](=O)[O-])o2)C(=O)N1 [Nitrofurantoin],0.879 ± 0.12
16,CC(Oc1c(Cl)cccc1Cl)C1=NCCN1 (stereo not drawn) [Lofexidine hydrochloride],1.35 ± 0.035
17,CC(=O)SCC(Cc1ccccc1)C(=O)NCC(=O)OCc1ccccc1 (stereo not drawn) [Racecadotril],0.836 ± 0.35
18,COc1cccc2c1C(=O)c1c(O)c3c(c(O)c1C2=O)C[C@@](O)(C(=O)CO)C[C@@H]3O[C@H]1C[C@H](N)[C@H](O)[C@H](C)O1 [Doxorubicin hydrochloride],1.05 ± 0.47
19,CC1(C)S[C@@H]2[C@H](/N=C/N3CCCCCC3)C(=O)N2[C@H]1C(=O)O [Mecillinam],1.12 ± 0.066

row,Compound,transfection efficiency
1,C[C@]12CC[C@@H]3c4ccc(OS(=O)(=O)O)cc4CC[C@H]3[C@@H]1CCC2=O [Estrone 3-sulfate sodium salt],1.06 ± 0.18
2,CC(C)NCC(O)COc1ccc(CC(N)=O)cc1 (stereo not drawn) [Atenolol],1.1 ± 0.1
3,Cc1cc2c(s1)Nc1ccccc1N=C2N1CCN(C)CC1 [Olanzapine],0.773 ± 0.16
4,C[C@H](CCC(=O)O)[C@H]1CC[C@H]2[C@@H]3C(=O)C[C@@H]4CC(=O)CC[C@]4(C)[C@H]3CC(=O)[C@]12C [Dehydrocholic acid],2.79 ± 0.75
5,COc1cc(C(=O)NS(=O)(=O)c2ccccc2C)ccc1Cc1cn(C)c2ccc(NC(=O)OC3CCCC3)cc12 [Zafirlukast],0.321 ± 0.1
6,CN(C)CCc1c[nH]c2ccc(C[C@H]3COC(=O)N3)cc12 [Zolmitriptan],1.33 ± 0.14
7,O=C(O)Cc1ccccc1Nc1c(Cl)cccc1Cl [Diclofenac sodium],1.13 ± 0.14
8,O=C(O)c1cc(/N=N/c2ccc(S(=O)(=O)Nc3ccccn3)cc2)ccc1O [Sulfasalazine],1 ± 0.081
9,CC1(C)O[C@@H]2C[C@H]3[C@@H]4C[C@H](F)C5=CC(=O)C=C[C@]5(C)[C@@]4(F)[C@@H](O)C[C@]3(C)[C@]2(C(=O)CO)O1 [Fluocinolone acetonide],2.52 ± 0.56
10,CC(=O)CCCCn1cnc2c1c(=O)n(C)c(=O)n2C [Lomifylline],1.44 ± 0.32
11,CCc1nc(N)nc(N)c1-c1ccc(Cl)cc1 [Pyrimethamine],1.03 ± 0.09
12,COc1cc2nc(N3CCN(C(=O)C4CCCO4)CC3)nc(N)c2cc1OC (stereo not drawn) [Terazosin],1.51 ± 0.064
13,CNC(=C[N+](=O)[O-])NCCSCc1csc(CN(C)C)n1 [Nizatidine],1.32 ± 0.3
14,CC(=O)O[C@H]1C[C@@H]2CC[C@@H]3[C@H](CC[C@@]4(C)[C@H]3C[C@H]([N+]3(C)CCCCC3)[C@@H]4OC(C)=O)[C@@]2(C)C[C@@H]1N1CCCCC1 [Vecuronium bromide],1 ± 0.059
15,c1ccc(CC2=NCCN2)cc1 [Priscoline hydrochloride],0.756 ± 0.1
16,CCCCNC(=O)NS(=O)(=O)c1ccc(C)cc1 [Tolbutamide],0.74 ± 0.11
17,Nc1ncn([C@@H]2O[C@H](CO)[C@@H](O)[C@H]2O)c(=O)n1 [5-Azacytidine],1.52 ± 0.35
18,C[C@]12CCC(=O)C=C1CC[C@@H]1[C@@H]2C(=O)C[C@@]2(C)[C@H]1CC[C@]2(O)C(=O)CO [Cortisone],1.04 ± 0.33
19,CN1CC(=O)N2[C@H](c3ccc4c(c3)OCO4)c3[nH]c4ccccc4c3C[C@@H]2C1=O [Tadalafil],1.17 ± 0.16
